This data set addresses BRD4 (Example 3, construct not stated), O60885.

B1: Abl kinase (protein)
chain: MLEICLKLVGCKSKKGLSSSSSCYLEEALQRPVASDFEPQGLSEAARWNSKENLLAGPSE[about 60 residues cut from this listing]LEKHSWYHGPVSRNAAEYLLSSGINGSFLVRESESSPGQRSISLRYEGRVYHYRINTASDGKLYVSSESRFNTLAELVHHHSTVADGLITTLHYPAPKRNKPTVYGVSPNYDKWEMERTDITMKHKLGGGQYGEVYEGVWKKYSLTVAVKTLKEDTMEVEEFLKEAAVMKEIKHPNLVQLLGVCTREPPFYIITEFMTYGNLLDYLRECNRQEVNAVVLLYMATQISSAMEYLEKKNFIHRDLAARNCLVGENHLVKVADFGLSRLMTGDTYTAHAGAKFPIKWTAPESLAYNKFSIKSDVWAFGVLLWEIATYGMSPYPGIDLSQVYELLEKDYRMERPEGCPEKVYELMRACWQWNPSDRPSFAEIHQAFETMFQESSISDEVEKELGKQGVRGAVSTLLQAPELPTKTRTSRRAAEHRDTTDVPEMPHSKGQGESDPLDHEPAVSPLLPRKERGPPEGGLNEDERLLPKDKKTNLFSALIKKKKKTAPTPPKRSSSFREMDGQPERRGAGEEEGRDISNGALAFTPLDTADPAKSPKPSNGAGVPNGALRESGGSGFRSPHLWKKSSTLTSSRLATGEEEGGGSSSKRFLRSCSASCVPHGAKDTEWRSVTLPRDLQSTGRQFDSSTFGGHKSEKPALPRKRAGENRSDQVTRGTVTPPPRLVKKNEEAADEVFKDIMESSPGSSPPNLTPKPLRRQVTVAPASGLPHKEEAGKGSALGTPAAAEPVTPTSKAGSGAPGGTSKGPAEESRVRRHKHSSESPGRDKGKLSRLKPAPPPPPAASAGKAGGKPSQSPSQEAAGEAVLGAKTKATSLVDAVNSDAAKPSQPGEGLKKPVLPATPKPQSAKPSGTPISPAPVPSTLPSASSALAGDQPSSTAFIPLISTRVSLRKTRQPPERIASGAITKGVVLDSTEALCLAISRNSEQMASHSAVLEAGKNLYTFCVSYVDSIQQMRNKFAFREAINKLENNLRELQICPATAGSGPAATQDFSKLLSSVKEISDIVQR
On to B1, for which the “BRD4 phosphorylation by Abl in vitro (thio-ATP, anti-thiophosphate ester antibody)” value is recorded as “more polar linker with an average length PHICS 10.3 showed the highest level of phosphorylation”.
